Measurements published in the RNAGym collection of RNA variant scans (doi:10.7554/elife.90254).
Read counts are not given, so values of variants with three or more changes are uncertain.

B1: LINE1-mini (parent)
chain: GGCAGAGCUCAACACAGCGUGGCAAAGUGGCUGUGGCUAGACUGCC

Variants of: B1
Assay: self-cleavage, relative activity (ratio to wild type); higher = more cleavage; in vitro, sequencing; the parent is a self-cleaving ribozyme

Row | Variant | self-cleavage
1 | C3U A6G G19A | 0.09
2 | A11G C15A U38G | 0.02
3 | G5C A11U A39G | 0
4 | G7A A12U C18A G19U | 0.18
5 | C8A U32G U34G | 0.13
6 | G33U U34A G35U U43C | 0.1
7 | G2C G17A G21A C42G | 0.04
8 | A6U U20A G36C | 0.02
9 | A11U G35A C45G | 0.01
10 | A39C G40U C46G | 0.11
11 | C3A C10G C31U | 0.02
12 | U9A G21C U34G C45U | 0.15
13 | C3U A12C A16G G21U | 0
14 | A11G G44U C46G | 0.04
15 | A6U C18G U28A G30U G40C C46A | 0.05
16 | U9C G19U U32C | 0
17 | A14U C18A C45U | 0.08
18 | C3U C13A U34C | 0.06
19 | C8A G27U G35C | 0.16
20 | U9A C18U U34A | 0.04
21 | C3U G5C G44A | 0.15
22 | U20A C23A A24G C46A | 0.48
23 | G2C A4C G5A C13G A16C | 0.02
24 | G5C A6G C8G U34A A39U | 0.02

Row | Variant | self-cleavage
25 | U9G A12C G22U C42G | 0
26 | G17C G21A A25G C37A | 0.39
27 | C18A A25U C42U | 0.02
28 | G21U U34C G36U C42G | 0.14
29 | G29A G33U G40U | 0.05
30 | G1U G30A C45A | 0.48
31 | G17A G21A A26U G29U | 0.11
32 | A12G A24U G36A | 0.06
33 | C3A A11G A12G A26C G30U | 0.01
34 | A4C G40U U43C | 0.06
35 | G36U G40U U43G | 0.08
36 | G2U C15A G40A | 0.01
37 | C10U A24G G40A | 0.01
38 | C8U G17A G21U A41G | 0.06
39 | C3A G7A A12G G33A | 0.04
40 | G21C C23G C37U | 0.04
41 | A4C G19U C31A U32C | 0
42 | G5C A16C G33A | 0.14
43 | C3A A14G C15U U32G | 0.08
44 | G1A C8A C42A | 0.44
45 | G5U A12C G17U G44U | 0.01
46 | C10A A14U U20C G35C C42A | 0
47 | A16G G19U U28G | 0.95
48 | G1U C10G G21U C45A | 0.01

Row | Variant | self-cleavage
49 | G22A A26U C31A U43C | 0.04
50 | G17A C18U G29C U32G C42G | 0.06
51 | G7C C8U U20A C46A | 0.14
52 | A6U A39G A41G | 0.05
53 | A12U A14G C18G U32A | 0.02
54 | G5U C10U C31A | 0.02
55 | G1U C13G A16U A24U | 0.04
56 | G7U G19U C31G U38C | 0.03
57 | A25U G40U C45U | 0.04
58 | U20A G21C C23A A26G G30U U38A | 0.1
59 | A12G U28G C31A C37G | 0.04
60 | C10A U20C C46A | 0.05
61 | G5C G35A C42G | 0.05
62 | A14G U28C U43A | 0.08
63 | A11U C18U A24C G44A | 0.02
64 | A14U G21U G29C U32G | 0.07
65 | A24U G29C C31G C42A | 0.14
66 | G17U G22A U38A | 0.25
67 | C18A G33U U34G | 0
68 | G1C G2U C8G U32C G33A A41G C42A | 0
69 | G2U G19C G33U C46U | 0.02
70 | C3G G5A G35C G44U | 0.12
71 | A6C A12C G27C G29A G36U | 0.02
72 | A4U A12G A26G C37G | 0.05

Row | Variant | self-cleavage
73 | G2A A12U G17C A26C | 0.29
74 | C15U A16C G29U | 0.12
75 | G19A G22U G33C A41G | 0.05
76 | G5U C10A G21A G29C | 0.58
77 | G2U C3A G33C U43A | 0.04
78 | C10A A12G G29U G35U A39U | 0.01
79 | C13U A14C U32A C46A | 0.02
80 | A4C A6U G7A A16U G21U G29U | 0.23
81 | G22U C31U C45A | 0.04
82 | G2C A24U A39U | 0.22
83 | C15G A16G C18A C42U | 0.04
84 | G5U U9A G21U G30C G40C | 0.01
85 | G22A A25C G27U G36U U43A G44U | 0.04
86 | G5U A12G G27C | 0.02
87 | A14U G21A G35U C45G | 0.05
88 | A4U U20A G29U | 0.09
89 | G1A G2A C23U G30C U34C G36A C37G | 0.21
90 | A4C G5A G33U | 0.25
91 | G5U G22A G36A C37U | 0.01
92 | C8G A24U U43G | 0.15
93 | G5U G21A A24C C46U | 0.06
94 | C10U C23A G33U | 0.01
95 | G5C G22U G35U | 0.06
96 | C10U G19C A39C | 0.04

Row | Variant | self-cleavage
97 | G2U C10A A11U U32A | 0
98 | A4G C18G G35C | 0.18
99 | C10A A24G G36C | 0.01
100 | A12G G19C C23A G33C A39G | 0.01
101 | G5U U32G G36C | 0.02
102 | G2A A4C C8U G21A A25C | 0.04
103 | G2A C3G A4U G44A | 0.34
104 | G22C G30A G44C | 0.09
105 | U9G C13U C46G | 0.07
106 | G17A G29A U38C | 0.06
107 | C3G A4C C31A C37U | 0.05
108 | G2C C15U C18U G35A | 0.09
109 | G19U U34C G35A C37U | 0.02
110 | C3U G7C U20A | 0.16
111 | A6U G22U G27U | 0.14
112 | G1A G7U A25G G30U C31A | 0.38
113 | A4G C10A A12U G33C | 0.03
114 | A24U G33A U43C | 0
115 | U20G A25G G30U | 0.65
116 | C10A G29U G44C | 0.32
117 | G5A C15A G27C C37G G44A | 0.05
118 | C3U G17C G44C C45A | 0.08
119 | G2A A4U A39U | 0.21
120 | G2A C18G G29C C46U | 0.11

Row | Variant | self-cleavage
121 | A16G G40U U43A | 0.39
122 | A4C C13U A14G C31A | 0.01
123 | G22A G36A A39G | 0.09
124 | C3A A14G C42U | 0.17
125 | G36U U38G C45G | 0.04
126 | A4G A12G G44U | 0.03
127 | A14U U20C C37U A39G A41G | 0.01
128 | A4U G5C G7C G19U U38A | 0.54
129 | C10A G17U G22C | 0.06
130 | G2U A26C G30C G36U A39G | 0
131 | A26C U28C C31A U32A A41C C42A | 0.01
132 | G2U C3G G7U C18A A41G | 0.03
133 | C15A G21U G22U | 0.78
134 | A14U C15U C45U | 0
135 | C10A A14C G21C G29A | 0.03
136 | G29U C31A C37U | 0.05
137 | G22U A26U U32C U38C | 0.08
138 | G7U U28C G40C | 0.31
139 | G5A U9G G27U | 0.09
140 | A11U U28C C31A | 0.24
141 | G2A A11U G17U | 0.07
142 | U20A A25G G44C | 0.28
143 | A4C A6G A26U C31U A41U | 0.01
144 | A12U G17C G29U C31A C46U | 0.01

Row | Variant | self-cleavage
145 | G1U G40U G44A C46A | 0.04
146 | C13U U32A U34G C37A U38A | 0
147 | A16G G19A A25C G33U | 0.01
148 | G5A A26G C31U | 0.07
149 | G30U C37U U38A U43A | 0.02
150 | A11U G29A C31U U38A | 0.07
151 | A11G U34C G36U | 0
152 | A6C A14G G19C C37U | 0.02
153 | U9G G21U A24U U38A | 0.14
154 | A12C G35C A39G | 0.03
155 | C10G C13G G33C U38C A39U | 0.02
156 | C8U U20A G21A | 0.22
157 | C8G A14U G29U | 0.02
158 | C8A C13G A16U G21C U34A | 0.29
159 | G1U G2U C15G G29A U38C C42U C45U | 0
160 | A6C C13G G35A A41U | 0.04
161 | C10U A14C C45G | 0.06
162 | A11G G22C U32C | 0.01
163 | C8U G29C G35A A41C C42G | 0.09
164 | G2A C10U A25U A26U | 0.59
165 | C3G G30A A41C | 0.14
166 | G21C A24G A26U U28G C42G | 0.02
167 | G7U C15G A24C | 0.02
